Results from paper PMC4336329 (PLoS ONE, 2015).
In all, about 310,000 compounds went through this assay and about 14,000 (4.5%) showed an effect of 50% or more. Effects have a minus sign here. Some of the results follow.

Each molecule was assayed against human ether-à-go-go-related gene (hERG) potassium channel (human, UniProt Q12809) (assay: primary screen, population patch clamp on CHO cells stably expressing hERG).
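Also: peak tail current of the secondary pulse compared with the same well before compound.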

Chain of human ether-à-go-go-related gene (hERG) potassium channel (Q12809 whole entry, looked up): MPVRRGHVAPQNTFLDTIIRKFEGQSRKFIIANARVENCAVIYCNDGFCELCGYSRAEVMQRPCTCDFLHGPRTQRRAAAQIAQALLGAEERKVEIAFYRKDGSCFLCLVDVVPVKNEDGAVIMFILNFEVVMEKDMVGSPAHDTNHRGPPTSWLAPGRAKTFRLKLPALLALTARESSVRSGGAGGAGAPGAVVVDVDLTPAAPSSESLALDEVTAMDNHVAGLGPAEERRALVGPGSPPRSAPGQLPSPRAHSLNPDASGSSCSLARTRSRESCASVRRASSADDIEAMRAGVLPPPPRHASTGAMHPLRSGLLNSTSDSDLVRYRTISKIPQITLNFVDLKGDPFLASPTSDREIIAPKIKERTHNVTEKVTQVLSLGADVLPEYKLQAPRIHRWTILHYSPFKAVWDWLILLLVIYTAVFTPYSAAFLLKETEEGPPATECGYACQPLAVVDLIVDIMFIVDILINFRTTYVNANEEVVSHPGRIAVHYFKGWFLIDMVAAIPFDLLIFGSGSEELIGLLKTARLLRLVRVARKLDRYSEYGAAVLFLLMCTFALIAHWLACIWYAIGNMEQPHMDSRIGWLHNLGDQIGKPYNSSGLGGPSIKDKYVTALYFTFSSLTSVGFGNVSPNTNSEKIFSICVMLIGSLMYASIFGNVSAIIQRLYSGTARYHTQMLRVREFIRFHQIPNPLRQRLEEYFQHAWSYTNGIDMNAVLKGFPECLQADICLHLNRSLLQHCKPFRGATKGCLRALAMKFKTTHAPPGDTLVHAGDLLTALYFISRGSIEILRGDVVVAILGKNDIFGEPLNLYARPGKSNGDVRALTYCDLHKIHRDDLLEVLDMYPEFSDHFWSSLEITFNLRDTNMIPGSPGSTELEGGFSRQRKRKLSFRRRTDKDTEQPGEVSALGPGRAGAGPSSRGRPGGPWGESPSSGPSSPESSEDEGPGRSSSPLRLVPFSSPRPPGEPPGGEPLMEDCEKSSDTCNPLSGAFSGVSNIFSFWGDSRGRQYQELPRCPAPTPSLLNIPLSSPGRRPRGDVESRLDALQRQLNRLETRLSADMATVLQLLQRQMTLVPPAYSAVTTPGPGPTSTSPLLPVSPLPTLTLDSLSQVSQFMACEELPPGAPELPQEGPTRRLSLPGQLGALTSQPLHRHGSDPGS

SMILES	hERG current change (%, negative = inhibition) at 10uM
Cc1nc(Sc2nnnn2-c2ccccc2)c(C#N)c(C)c1C	-21.3%
Cc1cc(C)n(-c2nnc(C)n2/N=C/c2ccccc2O)n1	-7.13%
Cn1c(=O)oc2cc(S(=O)(=O)NCCC(=O)N3CCc4ccccc4C3)ccc21	-19.5%
COc1ccc(Cl)cc1S(=O)(=O)N(C)CC(=O)NCc1ccccn1	17.8%
CCN(CC)CCCNC(=O)c1cc(Nc2ccc(OC)cc2)nc2ccccc12	-53.8%
Nc1c(Cl)ncnc1N/N=C/c1ccc2ccccc2n1	-11.7%
COc1ccc([C@@H]2C[C@H]3CN(Cc4ccccc4OC)C(=O)[C@]34CCCN24)cc1C	-46.6%
COc1ccccc1C(C(=O)NC1CCCCC1)N(C(=O)c1csnn1)C1CC1 (stereo not drawn)	0.419%
O=C(c1ccccc1)n1c(=S)nc2ccccn21	8.23%
COc1ccc(N2CCN(C(=O)c3ccc(S(=O)(=O)N4CCCC4)cc3)CC2)cc1	19.3%
CN(C)S(=O)(=O)N1CCN(C(=O)c2ccccc2Cl)CC1	0.739%
O=C(Cn1c(=O)oc2cc(S(=O)(=O)N3CCCCC3)ccc21)N1CCc2ccccc2C1	1.52%
Cn1c(Cc2cccs2)nnc1SCC(=O)Nc1ccc(F)cc1F	-15.5%
COc1ccccc1NCc1nnc(SCC(=O)N/N=C/c2ccco2)n1-c1ccc(Cl)cc1Cl	-0.294%
CC(C)(C)N/N=C1\CC(c2ccccc2)Oc2ccccc21.Cl (stereo not drawn)	5.46%
CSc1ccc(/C=C/C(=O)OCC(=O)N(C)CCC#N)cc1	3.61%
CCS(=O)(=O)c1nc2ccccc2n1CC(=O)N1CCCCC1	11.2%
O=C(NCc1ccccc1)NS(=O)(=O)c1ccccc1Cl	-4.3%
O=C(c1ccsc1)N1CCCC(Nc2cccc(F)c2)C1 (stereo not drawn)	12.2%

SMILES	hERG current change (%, negative = inhibition) at 10uM
CCCOC(=O)CCn1c(=S)oc2ccccc21	-7.36%
O=C(C[n+]1ccccc1)Nc1ccccc1[N+](=O)[O-].[Cl-]	21.2%
COc1ccc(CN2C3CCCC2CC(NC(=O)Nc2ccccc2)C3)cc1 (stereo not drawn)	-74.1%
CC(NC(=O)Cn1cnnn1)c1cccc(C(F)(F)F)c1 (stereo not drawn)	21.9%
O=C1CCC(=O)N1c1ccc(NCc2ccccc2Cl)c([N+](=O)[O-])c1	-2.79%
Cc1cc(C)c2cc(CN(CC3CCCO3)C(=S)NCc3ccco3)c(=O)[nH]c2c1 (stereo not drawn)	0.203%
CC(C(=O)NC1C(=O)N2C(C(=O)O)=C(CSc3nnnn3C)CSC12)n1cc(Br)cn1 (stereo not drawn)	25.1%
Cc1c(/C=N/n2cnnc2)c2ccccc2n1C	1.25%
O=[N+]([O-])c1cc(-n2cccc2)ccc1N1CCOCC1	-37.2%
COCCCNC(=O)Cn1nnc(-c2ccc(NC(=O)c3cccnc3)cc2)n1	-1.66%
CN(C(=O)CSc1nc(N)c2c3c(sc2n1)CSC(C)(C)C3)c1ccccc1	-7.23%
COc1ccc(-n2c3c(cc(C(=O)NNc4ccccc4)c2=O)C(=O)CC(C)(C)C3)cc1	-26.3%
C=C(C)CN1C(=O)C(=O)N(CC(=C)C)C1=O	20.2%
COc1ccc(Oc2coc3cc(OC(=O)c4cccs4)ccc3c2=O)cc1	16.1%
O=C(Nc1ccccc1C(=O)NCc1ccco1)NC1CCCCC1	-14.5%
CN(CCOC(=O)c1ccc2c(c1)OCCO2)C(C)(C)C.Cl	12.4%
Oc1ccccc1C1=NCCNC(C(F)(F)F)=C1	15.5%
COc1ccc(-c2cn(CCO)c(CCN)n2)cc1	4.1%
O=Cc1cn(CCOc2ccccc2F)c2ccccc12	4.35%

SMILES	hERG current change (%, negative = inhibition) at 10uM
Cc1nn(C)c(C)c1NC(=O)C12CC3CC(CC(C3)C1)C2	2.86%
O=C(O)/C(=C\c1ccco1)NC(=O)c1cccc2ccccc12	-3.21%
O=S1(=O)N=C(Nc2ccc(N3CCOCC3)cc2)c2ccccc21	-25.5%
Cc1cccc(C)c1OCC(=O)Nc1ccncc1	1.15%
COCCNC(=O)C(c1ccc(Cl)cc1)N(C(=O)CCC(=O)Nc1ccccn1)C1CCCC1 (stereo not drawn)	2.25%
Cc1cc(C)cc(NS(=O)(=O)c2ccc(-c3cnc(C4CC4)o3)cc2)c1	14.1%
CC(=O)N1CCN(C2c3cccc4cccc(c34)C2NS(=O)(=O)c2ccccc2)CC1 (stereo not drawn)	-37.7%
COc1ccc(CNn2c(-c3ccccc3F)nc3ccccc3c2=O)cc1OC	22.5%
O=[N+]([O-])c1ccc(C(O)C[n+]2ccccc2)cc1.[I-] (stereo not drawn)	12%
CC(NS(C)(=O)=O)C(c1cccs1)N1CCN(c2ccc(F)cc2)CC1 (stereo not drawn)	-11.4%
O=c1nccc(N/N=C/c2ccccc2)[nH]1	12.2%
COc1ccccc1CNC(=O)C(C)n1nc(C)n2c(cc3occc32)c1=O (stereo not drawn)	-7.85%
Cc1ccccc1C(=O)N(C)c1ccccc1C(=O)NCc1ccccc1	-21%
CCn1c(C)c(C)c2cc(C(=O)NCCN3CCOCC3)ccc21	-9.62%
Cc1ccc(N(CC(=O)NCc2ccncc2)S(C)(=O)=O)cc1	10.6%
CCOc1ccc(CCNc2cc(C)nc3ncnn23)cc1OCC	-5%
CCOC(=O)C1CCN(C(=O)c2sc3nc(C)nc(N4CCC(C)CC4)c3c2C)CC1	-52.7%
Cc1cc(/C=N/NC(=O)c2cccc(F)c2)c(C)n1-c1ccccc1	0.174%
COc1cc(O)ccc1C(=O)CCc1ccc(O)cc1	-45.4%
